# Assay results reported in the supplement of paper PMC8728848.
# The list shows a part of the results.
# How the values were obtained:
# Assay in all cases: glycan array binding signal (z-score within array); higher = stronger binding
# Settings in all cases: glycan notation: IUPAC condensed, linker removed
# Neu5Ac(a2-3)GalNAc = target: Neu5Ac(a2-3)GalNAc
# Procedure, shortened: (§1)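 Glycan array data were curated from 3228 arrays in the Consortium for Functional Glycomics database and kept only where the protein sequence was available. Glycan names were converted to IUPAC-condensed notation, and columns mapping to the same glycan were averaged. The binding signal is a within-array Z-score, averaged across arrays of the same protein sequence at different concentrations or buffers and across linkers. Negative Z-scores can be read as non-binding.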
# [1] = target: Neu5Ac(a2-3)GalNAc(b1-4)GlcNAc
# Procedure, shortened: as §1
# [2] = target: Neu5Ac(a2-3)[GalNAc(b1-4)]Gal(b1-4)Glc
# Procedure, shortened: as §1
# [3] = target: Neu5Ac(a2-3)[GalNAc(b1-4)]Gal(b1-4)GlcNAc
# Procedure, shortened: as §1
# [4] = target: Neu5Ac(a2-3)[GalNAc(b1-4)]Gal(b1-4)GlcNAc(b1-3)GalNAc
# Procedure, shortened: as §1
# [5] = target: Neu5Ac(a2-3)[Neu5Ac(a2-6)]GalNAc
# Procedure, shortened: as §1
# Neu5Ac(a2-6)Gal = target: Neu5Ac(a2-6)Gal
# Procedure, shortened: as §1
# [6] = target: Neu5Ac(a2-6)Gal(b1-3)GlcNAc(b1-3)[Gal(b1-4)GlcNAc(b1-6)]Gal(b1-4)Glc
# Procedure, shortened: as §1
# Neu5Ac(a2-6)Gal(b1-4)Glc = target: Neu5Ac(a2-6)Gal(b1-4)Glc
# Procedure, shortened: as §1
# [7] = target: Neu5Ac(a2-6)Gal(b1-4)GlcNAc
# Procedure, shortened: as §1
# [8] = target: Neu5Ac(a2-6)Gal(b1-4)GlcNAc(b1-2)Man
# Procedure, shortened: as §1
# [9] = target: Neu5Ac(a2-6)Gal(b1-4)GlcNAc(b1-2)Man(a1-3)Man(b1-4)GlcNAc(b1-4)GlcNAc
# Procedure, shortened: as §1
# [10] = target: Neu5Ac(a2-6)Gal(b1-4)GlcNAc(b1-2)Man(a1-3)[Gal(b1-4)GlcNAc(b1-2)Man(a1-6)]Man(b1-4)GlcNAc(b1-4)GlcNAc
# Procedure, shortened: as §1
# [11] = target: Neu5Ac(a2-6)Gal(b1-4)GlcNAc(b1-2)Man(a1-3)[GlcNAc(b1-2)Man(a1-6)]Man(b1-4)GlcNAc(b1-4)GlcNAc
# Procedure, shortened: as §1
# [12] = target: Neu5Ac(a2-6)Gal(b1-4)GlcNAc(b1-2)Man(a1-3)[GlcNAc(b1-4)][Neu5Ac(a2-6)Gal(b1-4)GlcNAc(b1-2)Man(a1-6)]Man(b1-4)GlcNAc(b1-4)GlcNAc
# Procedure, shortened: as §1
# [13] = target: Neu5Ac(a2-6)Gal(b1-4)GlcNAc(b1-2)Man(a1-3)[Man(a1-6)]Man(b1-4)GlcNAc(b1-4)GlcNAc
# Procedure, shortened: as §1
# [14] = target: Neu5Ac(a2-6)Gal(b1-4)GlcNAc(b1-2)Man(a1-3)[Neu5Ac(a2-3)Gal(b1-4)GlcNAc(b1-2)Man(a1-6)]Man(b1-4)GlcNAc(b1-4)GlcNAc
# Procedure, shortened: as §1
# [15] = target: Neu5Ac(a2-6)Gal(b1-4)GlcNAc(b1-2)Man(a1-3)[Neu5Ac(a2-6)Gal(b1-4)GlcNAc(b1-2)Man(a1-6)]Man(b1-4)GlcNAc(b1-4)GlcNAc
# Procedure, shortened: as §1
# [16] = target: Neu5Ac(a2-6)Gal(b1-4)GlcNAc(b1-2)Man(a1-3)[Neu5Ac(a2-6)Gal(b1-4)GlcNAc(b1-2)Man(a1-6)]Man(b1-4)GlcNAc(b1-4)[Fuc(a1-6)]GlcNAc
# Procedure, shortened: as §1
# [17] = target: Neu5Ac(a2-6)Gal(b1-4)GlcNAc(b1-2)Man(a1-6)Man(b1-4)GlcNAc(b1-4)GlcNAc
# Procedure, shortened: as §1
# [18] = target: Neu5Ac(a2-6)Gal(b1-4)GlcNAc(b1-2)Man(a1-6)[Gal(b1-4)GlcNAc(b1-2)Man(a1-3)]Man(b1-4)GlcNAc(b1-4)GlcNAc
# Procedure, shortened: as §1
# [19] = target: Neu5Ac(a2-6)Gal(b1-4)GlcNAc(b1-2)Man(a1-6)[GlcNAc(b1-2)Man(a1-3)]Man(b1-4)GlcNAc(b1-4)GlcNAc
# Procedure, shortened: as §1
# [20] = target: Neu5Ac(a2-6)Gal(b1-4)GlcNAc(b1-2)Man(a1-6)[Man(a1-3)]Man(b1-4)GlcNAc(b1-4)GlcNAc
# Procedure, shortened: as §1
# [21] = target: Neu5Ac(a2-6)Gal(b1-4)GlcNAc(b1-2)[Neu5Ac(a2-6)Gal(b1-4)GlcNAc(b1-4)]Man(a1-3)[GlcNAc(b1-4)][Neu5Ac(a2-6)Gal(b1-4)GlcNAc(b1-2)[Neu5Ac(a2-6)Gal(b1-4)GlcNAc(b1-6)]Man(a1-6)]Man(b1-4)GlcNAc(b1-4)GlcNAc
# Procedure, shortened: as §1
# [22] = target: Neu5Ac(a2-6)Gal(b1-4)GlcNAc(b1-2)[Neu5Ac(a2-6)Gal(b1-4)GlcNAc(b1-4)]Man(a1-3)[GlcNAc(b1-4)][Neu5Ac(a2-6)Gal(b1-4)GlcNAc(b1-4)Man(a1-6)]Man(b1-4)GlcNAc(b1-4)GlcNAc
# Procedure, shortened: as §1
# [23] = target: Neu5Ac(a2-6)Gal(b1-4)GlcNAc(b1-2)[Neu5Ac(a2-6)Gal(b1-4)GlcNAc(b1-6)]Man(a1-6)[Neu5Ac(a2-6)Gal(b1-4)GlcNAc(b1-2)Man(a1-3)][GlcNAc(b1-4)]Man(b1-4)GlcNAc(b1-4)GlcNAc
# Procedure, shortened: as §1
# [24] = target: Neu5Ac(a2-6)Gal(b1-4)GlcNAc(b1-3)Gal(b1-3)GlcNAc
# Procedure, shortened: as §1
# [25] = target: Neu5Ac(a2-6)Gal(b1-4)GlcNAc(b1-3)Gal(b1-4)GlcNAc
# Procedure, shortened: as §1
# [26] = target: Neu5Ac(a2-6)Gal(b1-4)GlcNAc(b1-3)Gal(b1-4)GlcNAc(b1-2)Man(a1-3)[Neu5Ac(a2-6)Gal(b1-4)GlcNAc(b1-3)Gal(b1-4)GlcNAc(b1-2)Man(a1-6)]GalNAc
# Procedure, shortened: as §1
# [27] = target: Neu5Ac(a2-6)Gal(b1-4)GlcNAc(b1-3)Gal(b1-4)GlcNAc(b1-3)Gal(b1-4)GlcNAc
# Procedure, shortened: as §1
# [28] = target: Neu5Ac(a2-6)Gal(b1-4)GlcNAc(b1-3)Gal(b1-4)GlcNAc(b1-3)Gal(b1-4)GlcNAc(b1-2)Man(a1-3)[Neu5Ac(a2-6)Gal(b1-4)GlcNAc(b1-3)Gal(b1-4)GlcNAc(b1-3)Gal(b1-4)GlcNAc(b1-2)Man(a1-6)]GalNAc
# Procedure, shortened: as §1
# [29] = target: Neu5Ac(a2-6)Gal(b1-4)GlcNAc(b1-3)Gal(b1-4)GlcNAc(b1-3)GalNAc
# Procedure, shortened: as §1
# [30] = target: Neu5Ac(a2-6)Gal(b1-4)GlcNAc(b1-3)Gal(b1-4)GlcNAc(b1-3)[Neu5Ac(a2-6)Gal(b1-4)GlcNAc(b1-3)Gal(b1-4)GlcNAc(b1-6)]GalNAc
# Procedure, shortened: as §1
# [31] = target: Neu5Ac(a2-6)Gal(b1-4)GlcNAc(b1-3)Gal(b1-4)GlcNAc(b1-6)[Gal(b1-3)]GalNAc
# Procedure, shortened: as §1
# [32] = target: Neu5Ac(a2-6)Gal(b1-4)GlcNAc(b1-3)Gal(b1-4)[Fuc(a1-3)]GlcNAc(b1-3)Gal(b1-4)[Fuc(a1-3)]GlcNAc
# Procedure, shortened: as §1
# [33] = target: Neu5Ac(a2-6)Gal(b1-4)GlcNAc(b1-3)GalNAc
# Procedure, shortened: as §1
# [34] = target: Neu5Ac(a2-6)Gal(b1-4)GlcNAc(b1-3)[Neu5Ac(a2-6)Gal(b1-4)GlcNAc(b1-6)]GalNAc
# Procedure, shortened: as §1
binder,measurement,setting,value
PX9937D-bvu-500-26-500 (Bacteroides vulgatus) (protein) DPVSDITDLNYWKTPEQFDSFVFGLHSRFRSHSWNMFLLGEARSDVFGGIPFGGEATQGMERFPYNTLNAENPGISGFGDLYQNINQMNLFISRTLHTDVLTESARNYYLGQVYGLRAYYMYQLYRSWGDVVFTEEPSLGFEVGKLAKAATPAAEIFEQVKKDIESSLSYFGSDYTIKEKKSLWSKAATLMLKADVYLWSAHRDGGEGDARTAKNALVDIQNNISRSNLDLMDTYQGVFAYDNKGNKEIIFTIHNELFEYNLWNGNNDLFPQADYLGKFYNADGTLINTSVENNFGIMRLMVKLENFKKFLPGDTRRDVTLKDVYNKVENGKLELVGVYPHKYWGVMNGSTRVRCDDYPIYRYSDLLLMLAEAKVLLGEDPATEINRVRRRAFGDAYDASTVGFPNQEVDKRPADAVLQERLFEFMLEGKRWYDLRRFGDSYVLDYTPAEPARLLWPINQGALTNNPLLKQTVGY,glycan array binding signal (z-score),Neu5Ac(a2-3)GalNAc,-0.37
same,glycan array binding signal (z-score),[1],-0.504
same,glycan array binding signal (z-score),[2],0.057
same,glycan array binding signal (z-score),[3],-0.037
same,glycan array binding signal (z-score),[4],-0.455
same,glycan array binding signal (z-score),[5],-0.396
same,glycan array binding signal (z-score),Neu5Ac(a2-6)Gal,-0.104
same,glycan array binding signal (z-score),[6],0.077
same,glycan array binding signal (z-score),Neu5Ac(a2-6)Gal(b1-4)Glc,-0.37
same,glycan array binding signal (z-score),[7],-0.235
same,glycan array binding signal (z-score),[8],-0.072
same,glycan array binding signal (z-score),[9],-0.341
same,glycan array binding signal (z-score),[10],-0.298
same,glycan array binding signal (z-score),[11],-0.121
same,glycan array binding signal (z-score),[12],-0.405
same,glycan array binding signal (z-score),[13],1.14
same,glycan array binding signal (z-score),[14],-0.701
same,glycan array binding signal (z-score),[15],-0.307
same,glycan array binding signal (z-score),[16],-0.318
same,glycan array binding signal (z-score),[17],-0.093
same,glycan array binding signal (z-score),[18],-0.559
same,glycan array binding signal (z-score),[19],-0.3
same,glycan array binding signal (z-score),[20],-0.46
same,glycan array binding signal (z-score),[21],-0.102
same,glycan array binding signal (z-score),[22],-0.426
same,glycan array binding signal (z-score),[23],0.914
same,glycan array binding signal (z-score),[24],-0.424
same,glycan array binding signal (z-score),[25],-0.037
same,glycan array binding signal (z-score),[26],4.23
same,glycan array binding signal (z-score),[27],-0.273
same,glycan array binding signal (z-score),[28],0.395
same,glycan array binding signal (z-score),[29],-0.414
same,glycan array binding signal (z-score),[30],0.005
same,glycan array binding signal (z-score),[31],0.256
same,glycan array binding signal (z-score),[32],0.021
same,glycan array binding signal (z-score),[33],1.81
same,glycan array binding signal (z-score),[34],-0.473
